According to the RNAGym collection of RNA variant scans (doi:10.1093/nar/gkz1192):
The source gives no read counts; variants with many changes may rest on few reads.

B1: CPEB3 Ribozyme (parent)
chain: UAACAGGGGGCCACAGCAGAAGCGUUCACGUCGCAGCCCCUGUCAGAUUCUGGUGAAUCUGCGAAUUCUGCUGUAUAUCUC

Variants of: B1
Experiment: self-cleavage, relative activity (ratio to wild type); higher = more cleavage; in vitro, sequencing
Procedure, shortened: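 Relative activity was defined as the cleaved/total read fraction for a variant divided by the same fraction for the unmutated ribozyme. CPEB3 self-cleaving ribozyme libraries were made by rounds of error-prone PCR, barcoded, and transcribed in vitro with T7 RNA polymerase for 5 hours at 37°C, and cleavage ran through transcription plus a 15 min DNase I step before EDTA. Illumina sequencing of template-switched reverse transcripts gave the reads, and DNA sequencing mapped the barcodes. Averages come from three batches, using variants with at least 5 reads.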

Row | Variant | self-cleavage
1 | G24A U25C A35G C50A U54A A56U U67C | 0.09
2 | G24A U25C C29A C59U G63A A64G U69C | 0.03
3 | G24A U25C C39A A45U U51A U54A A65G | 0.08
4 | G24A U25C C50A | 0.28
5 | G24A U25C G30U U48A | 0.37
6 | G24A U25C G42A | 0.29
7 | G24A U25C U31C U49A G70C A75G | 0.09
8 | G24A U25C U48C A57G | 0.07
9 | G24A U25C U66C U80C | 0.29
10 | G24A U25G A35G A64G U80C | 0.12
11 | G24A U26A A35G U48A | 0.08
12 | G24A U26A A47G A65C | 0.19
13 | G24A U26A U49C | 0.21
14 | G24A U26C A28G | 0.19
15 | G24A U26C A28G G73A A75G | 0.23
16 | G24A U26C A56U A57G A64G | 0.07
17 | G24A U26C U41C A45C U49C A65G U72A | 0.04
18 | G24A U26C U54A A64G | 0.22
19 | G24A U26C U66C | 0.41
20 | G24A U26C U66C U69C U72C | 0.17
21 | G24A U26G A35G A45U C50U U51C U67A | 0.19
22 | G24A U26G C27U A56G U66C | 0.05
23 | G24A U31A C32U U60G A64G | 0.09
24 | G24A U31C A56U | 0.16

Row | Variant | self-cleavage
25 | G24A U31C G36U U60A | 0.1
26 | G24A U31C U41A C44G | 0.05
27 | G24A U31C U41C | 0.16
28 | G24A U31C U51A | 0.16
29 | G24A U31G C40A A57G A64U C71U U72C | 0.05
30 | G24A U31G C40A U41C A45G A57G A64U | 0.06
31 | G24A U31G C40G A56G A57G A64U | 0.07
32 | G24A U41A U66C | 0.08
33 | G24A U41A U78C | 0.09
34 | G24A U41C A56U | 0.15
35 | G24A U41C A57G | 0.23
36 | G24A U41C U48C A57G U66A A75U | 0.12
37 | G24A U41C U51G A64G U67A | 0.08
38 | G24A U41C U67A | 0.15
39 | G24A U41C U69C U72C | 0.14
40 | G24A U41C U72C | 0.19
41 | G24A U41G U49C | 0.16
42 | G24A U43A C62A | 0.13
43 | G24A U43C U49A | 0.18
44 | G24A U48C U54C | 0.14
45 | G24A U49C G52A U72A | 0.08
46 | G24A U51C U66C | 0.15
47 | G24A U51C U67C C71U U78C | 0.05
48 | G24A U51G U69A | 0.16

Row | Variant | self-cleavage
49 | G24A U54A A57G U67C U80C | 0.09
50 | G24A U54C A56U U80A | 0.15
51 | G24A U54C A77G | 0.05
52 | G24A U54C U60G G63U U78C | 0.13
53 | G24A U60C U80A | 0.15
54 | G24A U69A U74C U80C | 0.08
55 | G24A U72A U80C | 0.14
56 | G24C A35G U69C | 0.23
57 | G24C A35U A56G A64G U78A | 0.05
58 | G24C A35U U48A | 0.17
59 | G24C A45C G52C | 0.16
60 | G24C A45G U58G | 0.06
61 | G24C A64G A65G U80C | 0.18
62 | G24C A64G C68U | 0.16
63 | G24C C29U U43C A65G | 0
64 | G24C C37U A45U U48C U54C U58C A64G | 0.16
65 | G24C C38A U41A U72C | 0.09
66 | G24C C38G U49C U78C | 0.02
67 | G24C G36U U43G U54A A56G U66C | 0.08
68 | G24C U25C A35G A47G | 0.04
69 | G24C U25C A75U | 0.11
70 | G24C U25C C34U A45U A47G U67C | 0.08
71 | G24C U25C G30U | 0.09
72 | G24C U26A U72C | 0.3

Row | Variant | self-cleavage
73 | G24C U26C A64G U72A C79U U80C | 0.22
74 | G24C U26C U48C U72G U78C | 0.07
75 | G24C U31A U43C G55A U69A U72C A77G | 0.06
76 | G24C U41A U49C U69C | 0.14
77 | G24C U41C C50A U66A | 0.1
78 | G24C U41C G53A U66C U74A | 0.08
79 | G24C U41C U51A U54A G63U | 0.09
80 | G24C U49G A56G U67C | 0.24
81 | G24C U58C U66C U67C | 0.16
82 | G24C U67C C81U | 0.15
83 | G24U A28C A35U U66C | 0.17
84 | G24U A28G G30C U31C U48G U74C | 0.07
85 | G24U A35G A56G U72C U80C | 0.58
86 | G24U A35G U72C U74C U80C | 0.78
87 | G24U A45G A56G U69C | 0.09
88 | G24U A65G U78A | 0.12
89 | G24U U25A A45U | 0.07
90 | G24U U25C G52C U60C U69C | 0.23
91 | G24U U25C U43A U66C | 0.14
92 | G24U U25C U49A A56U U69C | 0.07
93 | G24U U25C U51A U60C U72C | 0.07
94 | G24U U26C A35G U41A A65G C81U | 0.19
95 | G24U U31C C38U A45G U49C A64U | 0.08
96 | G24U U31G G73U | 0.32

Row | Variant | self-cleavage
97 | G24U U41A U49C | 0.19
98 | G24U U41C U58C | 0.18
99 | G24U U43A U69A | 0.28
100 | G24U U48C A56G | 0.34
101 | G24U U48C A77C | 0.47
102 | G24U U48C U49A | 0.08
103 | G24U U48C U69A U78C C81U | 0.06
104 | U25A A28G A35G | 0.18
105 | U25A A28G A47G U49C U51C | 0.06
106 | U25A A28G A57U U60C | 0.07
107 | U25A A28G C32U A47U U60C U78C | 0.04
108 | U25A A28G C38U A56G C62U | 0.07
109 | U25A A28G G46A U74G | 0.04
110 | U25A A28G U31A U41G | 0.24
111 | U25A A28G U41A G61C G70C | 0.28
112 | U25A A28G U41C A77G | 0.17
113 | U25A A28G U41C U54C A57U U66C | 0.07
114 | U25A A28G U43C U72C | 0.61
115 | U25A A28G U43G A45G U48A | 0.07
116 | U25A A28G U48C | 0.16
117 | U25A A28G U54C A57U U72A | 0
118 | U25A A28G U60C A64G U80C | 0.17
119 | U25A A28G U67C | 0.45
120 | U25A A28U A35G | 0.09

Row | Variant | self-cleavage
121 | U25A A28U A77C | 0.41
122 | U25A A28U U31A | 0.16
123 | U25A A28U U78C | 0.07
124 | U25A A35C G70A U80C | 0.13
125 | U25A A35C U60C | 0.13
126 | U25A A35C U78C | 0.16
127 | U25A A35G A45U A56U U74A U80C | 0.08
128 | U25A A35G C39A | 0.15
129 | U25A A35G C39U U43A U48C U49C U72C | 0.13
130 | U25A A35G U41A | 0.23
131 | U25A A35G U41C | 0.15
132 | U25A A35G U41C A56G U60A G61A A64G | 0.12
133 | U25A A35G U41C U43C U60A U69C | 0.02
134 | U25A A35G U51C U67C | 0.08
135 | U25A A35G U51C U76A | 0.14
136 | U25A A35G U69A U80C | 0.19
137 | U25A A35G U69C A75G U76C | 0.12
138 | U25A A35U A56G A57G | 0.16
139 | U25A A35U C38U | 0.23
140 | U25A A35U G53A U60C | 0.19
141 | U25A A35U U48C U49A U67A U80C | 0.05
142 | U25A A45C U54A | 0.44
143 | U25A A45C U78C | 0.13
144 | U25A A45G A47U A57G U80A | 0.07

Row | Variant | self-cleavage
145 | U25A A45G A56G | 0.23
146 | U25A A45G U49A U67A U80C | 0.08
147 | U25A A45U A65G U69A | 0.32
148 | U25A A45U U54C U66C | 0.09
149 | U25A A45U U54C U76A A77U | 0.09
150 | U25A A45U U78C | 0.23
151 | U25A A47G G52A U54C | 0.26
152 | U25A A47G U48C U58A | 0.08
153 | U25A A47G U51C U80A | 0.09
154 | U25A A47G U54C | 0.08
155 | U25A A56G U58G C59A | 0.11
156 | U25A A56G U60G U69A | 0.27
157 | U25A A56G U72A U76C | 0.1
158 | U25A A56G U74C | 0.4
159 | U25A A56G U76A | 0.1
160 | U25A A56U U60C | 0.16
161 | U25A A57G C62U U67A | 0.13
162 | U25A A57G U69A U72A | 0.14
163 | U25A A57G U72C | 0.05
164 | U25A A64G U78C | 0.35
165 | U25A A64U U66A | 0.12
166 | U25A A64U U66C U72C | 0.19
167 | U25A A64U U78C | 0.12
